# PubChem BioAssay AID686978 (National Center for Advancing Translational Sciences (NCATS), 2013)
# The whole screen tested about 420,000 compounds, of which about 64,000 (15%) were called active. Inconclusive means that the source gave no clear call. Such entries were picked first, then a sample of the others. The call rests on the fitted dose curve; in most records, active means well fitted inhibition curve with a large enough effect; inconclusive means small, poorly fitted or top-dose-only effect; inactive means flat fitted curve, though single readings scatter. Potencies of inconclusive entries are left out as doubtful fits.
# Experiment: qHTS for Inhibitors of human tyrosyl-DNA phosphodiesterase 1 (TDP1): qHTS in cells in absence of CPT; further: nearly all actives have a fitted effect of over 55% in size
# Conditions: DT40 Tdp1-/- hTDP1 cells, no CPT, ATP luminescence, 48 h; activity change, negative = growth inhibition: at 46.2 µM (top of the series) unless noted
# Procedure, shortened: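 Stably hTDP1-transfected Tdp1-null chicken DT40 cells were treated with library compounds minus camptothecin and grown for at least 48 hr at 37 °C, after which cellular ATP was quantified by luminescence.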
# On the % scale 0 is the no-effect control and ±100 the full control effect; potency means the concentration at half of the fitted maximal effect; tags describe the fitted curve by direction and shape.
SMILES,Potency,"activity change, negative = growth inhibition"
Cc1cc(=O)c(C(=O)O)cn1-c1ccc(C(C)C)cc1,inactive,–
C[C@H](CO)N1C[C@H](C)[C@@H](CN(C)S(=O)(=O)c2cccs2)Oc2c(NC(=O)C3CCCCC3)cccc2C1=O,"inconclusive [inhibitor, single point]",–
COCC(C)n1c(C)cc(C(=O)COC(=O)c2cc(=O)[nH]c3ccccc23)c1C (stereo not drawn),"inconclusive [inhibitor, single point]",–
O=C(NC1CCCCC1)c1noc2c1CCCCC2,"inconclusive [inhibitor, single point]",–
Cc1ccc(NS(=O)(=O)c2csc(C(N)=O)c2)cc1C,active: 20.6 µM,–
Cc1cc(NC(=O)COC(=O)c2ccc(NS(=O)(=O)c3ccc(C)c(C)c3)cc2)no1,"inconclusive [inhibitor, partial curve]",–
COc1cc(SC)ccc1C(=O)Nc1ccc2ncccc2c1,"inconclusive [inhibitor, single point]",–
CCOc1ccc(N2CC(C(=O)Nc3ccc4c(c3)OCCO4)CC2=O)cc1 (stereo not drawn),inactive,–
CCN(c1ccccc1)S(=O)(=O)c1ccc(OC)c(NC(=O)Cn2cnc3c2c(=O)n(C)c(=O)n3C)c1,"inconclusive [inhibitor, partial curve]",–
COc1ccc(/C(N)=N/OC(=O)Cc2ccc(OC)c(OC)c2)cc1,"inconclusive [inhibitor, single point]",–
CCCCCCCNC(=O)C1(CC2CC(c3ccccc3)=NO2)CCN(C(=O)c2ccccc2)CC1 (stereo not drawn),active: 16.4 µM,–
Cc1ccc2c(=O)cc(C(=O)Nc3sc4c(c3C(=O)NCc3cccnc3)CCCC4)oc2c1,"inconclusive [inhibitor, full curve, poor fit]",–
CN(c1ccccc1)S(=O)(=O)c1cccc(NC(=O)CSc2nncn2C)c1,"inconclusive [inhibitor, partial curve, poor fit]",–
Cc1ccc(NC(=O)OCCNC(=O)OC(C)C)cc1,"inconclusive [inhibitor, partial curve, poor fit]",–
CCCc1nnc(NC(=O)CCCN2C(=O)c3ccccc3C2=O)s1,"inconclusive [inhibitor, single point]",–
CSc1nnc(-c2ccccc2N=Cc2c(C)[nH]n(-c3ccccc3)c2=O)c(=O)[nH]1,"inconclusive [inhibitor, single point]",–
CCCC1Oc2ccccc2C(=O)N(CC(=O)c2ccc3c(c2)OCCO3)C1=O (stereo not drawn),inactive,–
O=C(NCC(c1cccnc1)N1CCc2ccccc21)c1ccc(Cl)cc1 (stereo not drawn),active: 11.6 µM,–
Cc1nnc(SC(C)C(=O)N2CCc3ccccc32)s1 (stereo not drawn),inactive,–
O=C(c1ccc2ccccc2c1)N1CCN(Cc2ccccc2)CC1,inactive,–
COc1ccc(S(=O)(=O)N2CCN(C(=O)c3cc(C)oc3C)CC2)cc1OC,inactive,–
O=C(O)C(Cc1c[nH]c2ccccc12)NS(=O)(=O)c1ccc2ccccc2c1 (stereo not drawn),"inconclusive [inhibitor, single point]",–
COCCn1c(SCC(=O)N2CC(C)OC(C)C2)nc2c([nH]c3ccccc32)c1=O (stereo not drawn),inactive,–

SMILES,Potency,"activity change, negative = growth inhibition"
Cc1ccc(CN(C(=O)COc2ccc(F)cc2)C2CCS(=O)(=O)C2)o1 (stereo not drawn),inactive,–
CCCCC(=O)Nc1ccc(C(=O)N2CCN(c3ccccc3OC)CC2)cc1,inactive,–
CC1C(=O)N2CCCc3cc(NC(=O)C(=O)NCc4ccc5c(c4)OCO5)cc1c32 (stereo not drawn),"inconclusive [inhibitor, single point]",–
CCn1cc(S(=O)(=O)c2ccccc2)c(=O)c2cc(F)c(F)cc21,–,inconclusive: -31.4% [inhibitor]
Cc1ccc(S(=O)(=O)N2CCC3CC2c2cc(Cl)ccc23)cc1 (stereo not drawn),"inconclusive [inhibitor, single point]",–
CCCn1c(SCc2nc(-c3cccs3)no2)nnc1-c1ccncc1,"inconclusive [inhibitor, single point]",–
CN(Cc1ccon1)Cc1cn(Cc2ccccc2)nc1-c1ccc2c(c1)OCO2,"inconclusive [inhibitor, partial curve]",–
Cc1ccc(C2=CC(c3ccccc3)n3ncnc3N2)cc1 (stereo not drawn),"inconclusive [inhibitor, single point]",–
CCOC(=O)Cn1c(=O)c2c(nc3n2CCCCN3c2ccc(C)cc2)n(C)c1=O,"inconclusive [inhibitor, partial curve]",–
Clc1nc2sccn2c1/C=N/n1cnc2ccccc21,"inconclusive [inhibitor, partial curve]",–
CCOC(=O)c1ccc(Nc2cc(C)nc(-c3ccccc3O)n2)cc1,active: 29.1 µM,–
Cc1cc(NS(=O)(=O)c2ccc(NC(=O)COc3cc(C)c(Br)cc3C(C)C)cc2)no1,"inconclusive [inhibitor, single point]",–
Cc1sc2ncn(CC(=O)NCCCC(=O)N3CCC(C(N)=O)CC3)c(=O)c2c1C,inactive,–
N#Cc1ccc(C23CC4(C2)[C@H](CN(Cc2ccc(-c5ccccc5)cc2)[C@@H]4c2ccccc2)C3c2ccccc2)cc1 (stereo partly drawn),"inconclusive [inhibitor, single point]",–
O=C(O)c1c2c(nc3ccccc13)/C(=C/c1c(F)cccc1F)CCC2,inactive,–
COc1ccc(/C=C2\SC(=Nc3ccccc3OC)NC2=O)cc1,"inconclusive [inhibitor, single point]",–
CCOc1ccc(N(CC)C(=O)Cn2cnc3sc(C)c(S(=O)(=O)N4CCN(c5ncccn5)CC4)c3c2=O)cc1,active: 9.2 µM,–
CSC(=NC(C)c1ccccc1)NS(=O)(=O)c1cccs1 (stereo not drawn),"inconclusive [inhibitor, partial curve]",–
CCOC(=O)c1c(C)[nH]c(-c2csc(C)n2)c1C,active: 13 µM,–
Cc1nc2ccc(NC(=O)COc3ccccc3F)cc2s1,"inconclusive [inhibitor, partial curve]",–
CCCCn1ccnc1C(=O)c1ccc(S(=O)(=O)N2CCCC2)cc1,"inconclusive [inhibitor, partial curve]",–
CCc1ccc(C(=O)NC(C(=O)NCC2CCCO2)C(C)C)cc1 (stereo not drawn),–,inconclusive: -31.3% [inhibitor]
CNC(C)C(=O)NC(C(=O)N1CCCC1C(=O)NC1CCCc2ccccc21)C(C)C (stereo not drawn),inactive,–

SMILES,Potency,"activity change, negative = growth inhibition"
CN(CC(=O)Nc1ccccc1Cl)C(=O)COC(=O)c1cc(S(=O)(=O)N(C)C)ccc1N1CCCC1,"inconclusive [inhibitor, single point]",–
COc1ccc(OC)c(NC(=O)C2(C)CCN2Cc2ccccc2Cl)c1 (stereo not drawn),"inconclusive [inhibitor, single point]",–
CN1CCS/C1=C/C=C1/SC(=S)N(Cc2ccccc2)C1=O,"inconclusive [inhibitor, partial curve]",–
N#CCCn1c(=O)c(CCc2ccccc2)nc2cnc(Oc3ccccc3)nc21,"inconclusive [inhibitor, single point]",–
CC(C)Cn1cnc2sc3c(c2c1=N)CCCC3,"inconclusive [inhibitor, partial curve, poor fit]",–
CCCN1C(C(=O)c2ccccc2)=C(OC(=O)COc2ccc(C)cc2)c2ccccc2S1(=O)=O,active: 5.17 µM,–
O=c1c2ccccc2cnn1-c1nc2ccccc2[nH]1,active: 3.66 µM,–
NCC12CC3CC(C1)CC(c1ccc(Cl)cc1)(C3)C2,active: 6.51 µM,–
COc1ccc(CNC(=O)CN2CCC(NC(=O)c3ccccc3C)CC2)cc1,inactive,–
O=C(NCC1CCCN1S(=O)(=O)c1cccs1)C(=O)Nc1ccccc1F (stereo not drawn),"inconclusive [inhibitor, full curve, poor fit]",–
COc1ccc(CN(C)C(=O)c2cccc(C(=O)N(C)Cc3ccc(OC)cc3)c2)cc1,"inconclusive [inhibitor, single point]",–
CCCCNC(=O)c1cn(CC)c2ccc(S(=O)(=O)N3CCCCCC3)cc2c1=O,–,inconclusive: -30.8% [inhibitor]
CCc1cccc(NC(=O)C2CCN(S(=O)(=O)c3ccc4c(c3)NC(=O)CO4)CC2)c1,"inconclusive [inhibitor, single point]",–
COc1ccccc1CNC(=O)/C=C/c1ccc(S(=O)(=O)NCc2ccco2)cc1,"inconclusive [inhibitor, single point]",–
Cc1cc(O)c(CN2CCN(c3ccccc3)CC2)c2oc(=O)cc(C)c12,inactive,–
CCCSCCCNC(=O)Cn1c(-c2cccs2)cc2ccccc21,"inconclusive [inhibitor, single point]",–
CCCn1c(SC(C)C(=O)N2CCOCC2)nc2ccc(Br)cc2c1=O (stereo not drawn),"inconclusive [inhibitor, single point]",–
CCc1nnc2sc(-c3cc(-c4ccccc4)nc4ccccc34)nn12,"inconclusive [inhibitor, single point]",–
CCN(CC)CCN(C(=O)CCOc1ccccc1)c1nc2ccc(F)cc2s1,"inconclusive [inhibitor, single point]",–
O=C(Nc1c2c(nn1-c1ccc(Cl)cc1)CS(=O)(=O)C2)c1ccc(Br)cc1,active: 16.4 µM,–
Cc1ccc(C)c(S(=O)(=O)N2CCN(C(=O)Cc3ccc(S(=O)(=O)N4CCOCC4)s3)CC2)c1,"inconclusive [inhibitor, partial curve]",–
O=C(c1ccc(S(=O)(=O)c2ccc(F)cc2)c([N+](=O)[O-])c1)N1CCCCCC1,active: 2.31 µM,–
